Laboratory results from US20260374880 (published 2026).

What was measured:
[1] = molecular target: T1, human TGFbR1 ECD 33-125-myc(His)6 (human); assay: ELISA
T1 chain: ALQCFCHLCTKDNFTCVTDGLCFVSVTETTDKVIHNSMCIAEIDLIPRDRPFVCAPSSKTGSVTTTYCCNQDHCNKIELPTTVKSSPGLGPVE

[2] = molecular target: T2, human TGFbR1 ECD-133-myc(His)6 (human); assay: BLI
T2 chain: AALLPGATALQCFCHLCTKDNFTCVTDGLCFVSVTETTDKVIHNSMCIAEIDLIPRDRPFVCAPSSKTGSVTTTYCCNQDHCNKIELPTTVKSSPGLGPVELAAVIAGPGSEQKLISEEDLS

binding result [1]: no binding
Kd [2]: ~330 nM
B1: B-ML012-19 (antibody)
chain: [sequence of about 100 residues omitted]VVGYVYGGSYGGGMDYWGQGTLVTVSSGGGGSGGGGSGGGGSDIQMTQSPSSLSASVGDRVTITCRASQSISSYLNWYQQKPGKAPKLLIYAASSLQSGVPSRFSGSGSGTDFTLTISSLQPEDFATYYCQQGYGPLTFGQGTKLEIK
